We go through four molecules from PubChem BioAssay (NCI).

The structures appear in SMILES notation.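 Results reflect a 48-hour exposure of cells in 96-well plates to compound at five concentrations. GI50: concentration for 50% inhibition of growth.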 For part of its entries the source gives two or more results. They are shown here; other results are not. An entry can have further records. For part of these data: Values given together are repeated measurements in other runs, samples, wells, individuals or studies. A tag in brackets gives the origin of a value. Letters count within one entry.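 TGI: total growth inhibition.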 For part of these data: A record mostly stands for its own series of concentrations, which the source does not state; some values may only mark the edge of a range. Square brackets hold non-standard residues; d marks the D form. Peptide text beside a SMILES is read from it. * marks the point of attachment. Bn2Val = CC(C)[C@@H](C(=O)*)N(Cc1ccccc1)Cc1ccccc1; NH(3,4-diMeO-benzyl) = COc1ccc(CN*)cc1OC; NMeV = CN[C@H](C(=O)O)C(C)C; dNMeA = CN[C@H](C)C(=O)O

Common to all, as to test: growth of human tumour cells (NCI), 48 h
The test system of assay [1] is HS 578T breast.
The test system of assay [2] is CAKI-1 renal.
Assay [3] relates to SNB-75 CNS.
For assay [4], the system named is HCT-116 colon.
The subject of assay [5] is HT29 colon.
The test system of assay [6] is SF-295 CNS.
The subject of assay [7] is SN12C renal.
For assay [8], the system named is SNB-19 CNS.
The subject of assay [9] is M14 melanoma.
The subject of assay [10] is HOP-62 NSCLC.
The subject of assay [11] is SR leukemia.
Assay [12] concerns HCC-2998 colon.
The subject of assay [13] is EKVX NSCLC.
Assay [14] has as its system NCI-H23 lung.

Take `COc1ccc(CNC(=O)[C@@H](C)N(C)C(=O)[C@@H]2CCCN2C(=O)[C@H](C(C)C)N(C)C(=O)[C@@H](NC(=O)[C@H](C(C)C)N(Cc2ccccc2)Cc2ccccc2)C(C)C)cc1OC` (Bn2Val-V[NMeV]P[dNMeA]-{NH(3,4-diMeO-benzyl)}): the TGI in assay [1] was 7.11 µM and > 100 µM.
For `O=c1c(Cl)c(Cl)cnn1-c1ccccc1`, the TGI in assay [2] is 3.3 µM [sample A, mean of 2 tests] and > 100 µM [sample B, 1 test]. For the same molecule, the GI50 in assay [3] was 397 nM [sample A, mean of 3 tests] and 12.7 µM [sample B, mean of 2 tests].
In the case of `COc1cc([C@@H]2c3cc4c(cc3C[C@H]3COC(=O)[C@@H]32)OCO4)cc(OC)c1OC`, the TGI is 9.62 nM [1 test] and > 50 µM [mean of 4 tests] in [4]; 9.32 nM [1 test] and 1.26 µM [mean of 5 tests] in [5].
Take `O=C(O)CCCc1ccc(N(CCCl)CCCl)cc1`: the TGI in assay [6] is 61.1 µM, 293 µM, 638 µM; in assay [7], 38.9 µM, 239 µM, 750 µM; in assay [8], 49.4 µM, 395 µM, 589 µM; in assay [9], 35.2 µM, 205 µM, 410 µM; in [10], 31.2 µM, 221 µM, 554 µM; in assay [11], 7.87 µM and 131 µM. The TGI in [12] is given as 38 µM, 237 µM, 426 µM; in assay [13] it was 33.4 µM, 376 µM, 502 µM; in [3] it was 31.5 µM, 209 µM, 401 µM; in [14], 20.5 µM, 137 µM, 215 µM.
